Assay results as given in PubChem BioAssay AID624296 (National Center for Advancing Translational Sciences (NCATS), 2012).
The campaign covered roughly 350,000 compounds. About 9,900 (2.8%) were called active. Inconclusive results, whose numbers are uncertain, are shown with a selection of clear calls. Calls follow the shape of the dose curve; as a rule, active = well fitted activation curve with a large enough effect; inconclusive = small, poorly fitted or top-dose-only effect; inactive = no such curve, though single readings can be large or run the other way. No potency is given beside an inconclusive call; the fits are too rough.

assay: A quantitative high throughput screen for small molecules that induce DNA re-replication in MCF 10a normal breast cells.; also: nearly all actives have a fitted effect of over 50% in size; as to activity, positive = re-replication: % of control where 0% means no effect; settings: MCF 10A DNA re-replication, Hoechst nuclear intensity, 48 h; activity, positive = re-replication: at 46.1 µM (top of the series)
Potency is read from the fitted curve at half-maximal effect; tags tell the direction and shape of the fitted curve.

| Compound | Potency | activity, positive = re-replication |
| --- | --- | --- |
| CCOC(=O)N1CCN(C(=O)c2cc(COc3ccc4ncccc4c3)on2)CC1 | inconclusive [activator, partial curve, poor fit] |  |
| CCCCN1CC(O)=C(c2nc3ccccc3[nH]2)C1=N | inconclusive [activator, single point] |  |
| Cc1cccn2c(=O)c3cc(C(=O)NCC4CCCO4)c(=N)n(C4CCCC4)c3nc12 (centres undefined) | inconclusive [activator, full curve, poor fit] |  |
| COc1ccc(NC(=O)c2cc3c(=O)n(C)c4ccccc4c3n2C)cc1OC |  | inactive: 10.1% |
| COc1cccc(/C=N/Nc2ccnc(=O)[nH]2)c1O | inconclusive [activator, single point] |  |
| CN(CCC1CCOCC1)C(=O)C1CCC(=O)N(CCc2ccc(Cl)cc2)C1 (centres undefined) | inconclusive [activator, partial curve, poor fit] |  |
| COc1ccc(C=NNc2ccc([N+](=O)[O-])cc2S(=O)(=O)Nc2ccccc2C(=O)O)cc1OC | active: 18.4 µM |  |
| CSCCC(NC(N)=O)C(=O)N(C)CC(=O)Nc1cc(C)ccc1C (centres undefined) | inconclusive [activator, single point] |  |
| Cc1ccc(C)c(NC(=O)/C(C#N)=C/c2cn(CC(=O)NCc3ccco3)c3ccccc23)c1 | inconclusive [activator, full curve] |  |
| COc1ccccc1N1CCN(CC(O)c2c(C)[nH]c3ccccc23)CC1 (centres undefined) | active: 18.4 µM |  |
| Cc1oc(-c2cccc(Cl)c2)nc1CN1CCCC(C(=O)NC(C)c2ccc3c(c2)OCCO3)C1 (centres undefined) | inconclusive [activator, single point] |  |
| CCc1nnc(NC(=O)CSc2nc(-c3ccccc3)cc(-c3ccc(F)cc3)c2C#N)s1 | active: 4.11 µM |  |
| COc1ccc(C(=O)Nc2ccc(Oc3ncnc4sc(-c5ccccc5)cc34)cc2)cc1OC | active: 3.26 µM |  |
| CC(=O)C1=C(O)C(=O)N(CCc2c[nH]c3ccccc23)C1c1ccc(O)cc1 (centres undefined) |  | inactive: 9.7% |
| COc1ccc(S(=O)(=O)NCC2CCCN(Cc3cccnc3)C2)cc1 (centres undefined) | active: 1.03 µM |  |
| CC1CCN(CCCNC(=O)c2coc3nc4ccccc4nc23)CC1 | active: 14.6 µM |  |
| Cc1cccc(NC(=O)CSc2nc(C)c(CC(=O)c3ccc(Br)cc3)c(C)c2C#N)c1C | active: 1.03 µM |  |
| CN1C[C@@H]2C(c3ccccc3)C3(c4cccnc4)CC2(C3)[C@H]1c1ccccc1 (some centres undefined) | inconclusive [activator, full curve, poor fit] |  |
| CCCC(=O)N1CCN(c2nc3ccc(Br)cc3s2)CC1 | inconclusive [activator, single point] |  |
